From the supplement of paper PMC8728848
The list shows a part of the results.

Legend:
Test in all cases: glycan array binding signal (z-score within array); higher = stronger binding
Conditions in all cases: glycan notation: IUPAC condensed, linker removed
[1] = molecular target: Man(a1-3)[Man(a1-6)]Man(b1-4)GlcNAc(b1-4)GlcNAc
How it was run: (§1)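 The binding signal is a Z-score computed within each array. Data were drawn from 3228 arrays in the Consortium for Functional Glycomics database, restricted to those with a known protein sequence. Scores were averaged over arrays of the same protein sequence at different concentrations or buffers, and over linkers, and negative values can be taken as non-binding.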

[2] = molecular target: Man(a1-6)Man
How it was run: as §1

[3] = molecular target: Man(b1-4)GlcNAc
How it was run: as §1

[4] = molecular target: Neu5Ac(a2-3)Gal
How it was run: as §1

[5] = molecular target: Neu5Ac(a2-3)Gal(b1-3)GalNAc
How it was run: as §1

[6] = molecular target: Neu5Ac(a2-3)Gal(b1-3)GalNAc(b1-3)Gal(a1-4)Gal(b1-4)Glc
How it was run: as §1

[7] = molecular target: Neu5Ac(a2-3)Gal(b1-3)GalNAc(b1-3)Gal(b1-4)GlcNAc
How it was run: as §1

[8] = molecular target: Neu5Ac(a2-3)Gal(b1-3)GalNAc(b1-4)[Neu5Ac(a2-3)]Gal(b1-4)Glc
How it was run: as §1

[9] = molecular target: Neu5Ac(a2-3)Gal(b1-3)GalNAc6S
How it was run: as §1

[10] = molecular target: Neu5Ac(a2-3)Gal(b1-3)GlcNAc
How it was run: as §1

[11] = molecular target: Neu5Ac(a2-3)Gal(b1-3)GlcNAc(b1-3)Gal(b1-3)GlcNAc
How it was run: as §1

[12] = molecular target: Neu5Ac(a2-3)Gal(b1-3)GlcNAc6S
How it was run: as §1

[13] = molecular target: Neu5Ac(a2-3)Gal(b1-3)[Fuc(a1-4)]GlcNAc
How it was run: as §1

[14] = molecular target: Neu5Ac(a2-3)Gal(b1-3)[Fuc(a1-4)]GlcNAc(b1-3)Gal(b1-3)[Fuc(a1-4)]GlcNAc
How it was run: as §1

[15] = molecular target: Neu5Ac(a2-3)Gal(b1-3)[Fuc(a1-4)]GlcNAc(b1-3)Gal(b1-4)[Fuc(a1-3)]GlcNAc
How it was run: as §1

[16] = molecular target: Neu5Ac(a2-3)Gal(b1-3)[Neu5Ac(a2-3)Gal(b1-4)]GlcNAc
How it was run: as §1

[17] = molecular target: Neu5Ac(a2-3)Gal(b1-3)[Neu5Ac(a2-6)]GalNAc
How it was run: as §1

[18] = molecular target: Neu5Ac(a2-3)Gal(b1-4)Glc
How it was run: as §1

[19] = molecular target: Neu5Ac(a2-3)Gal(b1-4)GlcNAc
How it was run: as §1

[20] = molecular target: Neu5Ac(a2-3)Gal(b1-4)GlcNAc(b1-2)Man(a1-3)[GlcNAc(b1-2)Man(b1-4)GlcNAc(b1-2)Man(a1-6)]Man(b1-4)GlcNAc(b1-4)GlcNAc
How it was run: as §1

[21] = molecular target: Neu5Ac(a2-3)Gal(b1-4)GlcNAc(b1-2)Man(a1-3)[Neu5Ac(a2-6)Gal(b1-4)GlcNAc(b1-2)Man(a1-6)]Man(b1-4)GlcNAc(b1-4)GlcNAc
How it was run: as §1

[22] = molecular target: Neu5Ac(a2-3)Gal(b1-4)GlcNAc(b1-3)Gal(b1-3)GlcNAc
How it was run: as §1

[23] = molecular target: Neu5Ac(a2-3)Gal(b1-4)GlcNAc(b1-3)Gal(b1-4)GlcNAc
How it was run: as §1

[24] = molecular target: Neu5Ac(a2-3)Gal(b1-4)GlcNAc(b1-3)Gal(b1-4)GlcNAc(b1-3)Gal(b1-4)GlcNAc
How it was run: as §1

[25] = molecular target: Neu5Ac(a2-3)Gal(b1-4)GlcNAc(b1-3)Gal(b1-4)[Fuc(a1-3)]GlcNAc
How it was run: as §1

[26] = molecular target: Neu5Ac(a2-3)Gal(b1-4)GlcNAc(b1-3)GalNAc
How it was run: as §1

[27] = molecular target: Neu5Ac(a2-3)Gal(b1-4)GlcNAc(b1-6)[Gal(b1-3)]GalNAc
How it was run: as §1

[28] = molecular target: Neu5Ac(a2-3)Gal(b1-4)GlcNAc(b1-6)[Neu5Ac(a2-3)Gal(b1-3)]GalNAc
How it was run: as §1

[29] = molecular target: Neu5Ac(a2-3)Gal(b1-4)GlcNAc6S
How it was run: as §1

[30] = molecular target: Neu5Ac(a2-3)Gal(b1-4)[Fuc(a1-3)]GlcNAc
How it was run: as §1

[31] = molecular target: Neu5Ac(a2-3)Gal(b1-4)[Fuc(a1-3)]GlcNAc(b1-3)Gal
How it was run: as §1

[32] = molecular target: Neu5Ac(a2-3)Gal(b1-4)[Fuc(a1-3)]GlcNAc(b1-3)Gal(b1-4)GlcNAc
How it was run: as §1

[33] = molecular target: Neu5Ac(a2-3)Gal(b1-4)[Fuc(a1-3)]GlcNAc(b1-3)Gal(b1-4)[Fuc(a1-3)]GlcNAc(b1-3)Gal(b1-4)[Fuc(a1-3)]GlcNAc
How it was run: as §1

[34] = molecular target: Neu5Ac(a2-3)Gal(b1-4)[Fuc(a1-3)]GlcNAc(b1-3)GalNAc
How it was run: as §1

[35] = molecular target: Neu5Ac(a2-3)Gal(b1-4)[Fuc(a1-3)]GlcNAc(b1-6)[Gal(b1-3)]GalNAc
How it was run: as §1

[36] = molecular target: Neu5Ac(a2-3)Gal(b1-4)[Fuc(a1-3)]GlcNAc(b1-6)[Neu5Ac(a2-3)Gal(b1-3)]GalNAc
How it was run: as §1

[37] = molecular target: Neu5Ac(a2-3)Gal(b1-4)[Fuc(a1-3)]GlcNAc6S
How it was run: as §1

[38] = molecular target: Neu5Ac(a2-3)Gal6S(b1-4)GlcNAc
How it was run: as §1

[39] = molecular target: Neu5Ac(a2-3)Gal6S(b1-4)[Fuc(a1-3)]GlcNAc
How it was run: as §1

[40] = molecular target: Neu5Ac(a2-3)GalNAc
How it was run: as §1

[41] = molecular target: Neu5Ac(a2-3)GalNAc(b1-4)GlcNAc
How it was run: as §1

[42] = molecular target: Neu5Ac(a2-3)[GalNAc(b1-4)]Gal(b1-4)Glc
How it was run: as §1

[43] = molecular target: Neu5Ac(a2-3)[GalNAc(b1-4)]Gal(b1-4)GlcNAc
How it was run: as §1

B1: CCL2 (Coprinopsis cinerea), B3GA02 (protein)
chain: MDSPAVTLSAGNYIIYNRVLSPRGEKLALTYPGRQRTPVTVSPLDGSSEQAWILRSYDSNSNTWTISPVGSPNSQIGWGAGNVPVVLPPNNYVWTLTLTSGGYNIQDGKRTVSWSLNNATAGEEVSIGADATFSGRWVIEKV
- glycan array binding signal (z-score) [1]: -0.239
- glycan array binding signal (z-score) [2]: -0.296
- glycan array binding signal (z-score) [3]: -0.3
- glycan array binding signal (z-score) [4]: -0.224
- glycan array binding signal (z-score) [5]: -0.166
- glycan array binding signal (z-score) [6]: -0.278
- glycan array binding signal (z-score) [7]: -0.296
- glycan array binding signal (z-score) [8]: -0.249
- glycan array binding signal (z-score) [9]: -0.233
- glycan array binding signal (z-score) [10]: -0.282
- glycan array binding signal (z-score) [11]: -0.201
- glycan array binding signal (z-score) [12]: -0.282
- glycan array binding signal (z-score) [13]: -0.283
- glycan array binding signal (z-score) [14]: 0.068
- glycan array binding signal (z-score) [15]: -0.104
- glycan array binding signal (z-score) [16]: -0.259
- glycan array binding signal (z-score) [17]: 0.849
- glycan array binding signal (z-score) [18]: -0.28
- glycan array binding signal (z-score) [19]: -0.279
- glycan array binding signal (z-score) [20]: -0.264
- glycan array binding signal (z-score) [21]: -0.281
- glycan array binding signal (z-score) [22]: -0.256
- glycan array binding signal (z-score) [23]: -0.284
- glycan array binding signal (z-score) [24]: -0.269
- glycan array binding signal (z-score) [25]: -0.272
- glycan array binding signal (z-score) [26]: -0.227
- glycan array binding signal (z-score) [27]: -0.281
- glycan array binding signal (z-score) [28]: -0.27
- glycan array binding signal (z-score) [29]: -0.265
- glycan array binding signal (z-score) [30]: 3.74
- glycan array binding signal (z-score) [31]: 5.39
- glycan array binding signal (z-score) [32]: 4.93
- glycan array binding signal (z-score) [33]: 4.19
- glycan array binding signal (z-score) [34]: 0.012
- glycan array binding signal (z-score) [35]: 4.04
- glycan array binding signal (z-score) [36]: 4.17
- glycan array binding signal (z-score) [37]: 4.45
- glycan array binding signal (z-score) [38]: 4.88
- glycan array binding signal (z-score) [39]: 4.18
- glycan array binding signal (z-score) [40]: -0.29
- glycan array binding signal (z-score) [41]: -0.294
- glycan array binding signal (z-score) [42]: -0.269
- glycan array binding signal (z-score) [43]: -0.278
